Experimental data from PubChem BioAssay AID1461 (National Center for Advancing Translational Sciences (NCATS), 2008).
About 2,300 (1%) of roughly 220,000 compounds were called active. The inconclusive results got no clear call from the source; some entries with a clear call stand among them for comparison. Calls come from the whole dose curve; as a rule, active = well fitted inhibition curve with a large enough effect; inconclusive = small, poorly fitted or top-dose-only effect, or effect the other way; inactive = no such curve, though single readings can be large or run the other way. Potencies of inconclusive entries are left out as doubtful fits.

Each compound was assayed against Neuropeptide S receptor (Homo sapiens) (UniProt Q6W5P4) (assay: qHTS Assay for Antagonists of the Neuropeptide S Receptor: cAMP Signal Transduction). Details: CHO-NPSR cells, cAMP TR-FRET, antagonist mode; activity change, negative = inhibition: at 38.3 µM (top of the series) unless noted.
% is set by controls: 0 for no effect and ±100 for the full control effect; potency is the fitted concentration of half-maximal effect; tags give direction and shape of the fitted curve.
Note: nearly all actives have a fitted effect of over 50% in size.

Chain of UniProt Q6W5P4 (Q6W5P4 whole entry, looked up): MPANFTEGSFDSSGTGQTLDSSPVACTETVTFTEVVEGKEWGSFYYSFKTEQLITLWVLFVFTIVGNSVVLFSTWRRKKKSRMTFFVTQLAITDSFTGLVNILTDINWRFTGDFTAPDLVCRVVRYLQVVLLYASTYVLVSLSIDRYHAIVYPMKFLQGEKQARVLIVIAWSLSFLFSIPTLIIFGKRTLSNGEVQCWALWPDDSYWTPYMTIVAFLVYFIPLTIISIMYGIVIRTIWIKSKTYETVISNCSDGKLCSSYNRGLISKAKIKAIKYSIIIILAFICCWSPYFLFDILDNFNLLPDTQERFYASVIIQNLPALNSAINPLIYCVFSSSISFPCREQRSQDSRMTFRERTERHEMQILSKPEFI

Compound	Potency	activity change, negative = inhibition
Cc1ccc(C2Nc3ccccc3-c3nc4ccccc4n32)o1 (stereo not given)	inconclusive [activator, partial curve]	–
Cc1c(Cl)ccc2c(C(=O)NC(C)c3ccncc3)cc(-c3ccncc3)nc12 (stereo not given)	–	inactive: -44.1%
CCOc1ccc(C(=O)Nc2cccc(-c3nc4cccnc4o3)c2)cc1Cl	inconclusive [inhibitor, single point]	–
N#Cc1ccccc1NC(=O)CNc1ccc(Cl)c(C(F)(F)F)c1	–	inactive: -9.58% [at 46.1 µM]
CCCOc1cc(C)c(S(=O)(=O)N2CCOCC2)cc1C	–	inactive: 5.86%
O=C(NC1CCCCC1)C1CCN(C(=O)NCc2ccccc2)CC1	inconclusive [inhibitor, single point]	–
COc1ccc(CCNC(=O)Cn2c(=O)n(Cc3ccco3)c(=O)c3ccc(Cl)cc32)cc1OC	inconclusive [inhibitor, partial curve]	–
Cc1ccc2c(c1)C(N1CCN(C)CC1)=Nc1cccnc1N2	inconclusive [inhibitor, partial curve]	–
CCOC(=O)c1c(NC(=O)C2CC2)sc(C)c1CC	–	inactive: -14.9%
C=C(C(=O)c1ccccc1)C(c1ccccc1)C(C)C(=O)c1ccccc1 (stereo not given)	inconclusive [inhibitor, single point]	–
Cc1[nH]c(=O)[nH]c(=O)c1CSCC(=O)OCC(=O)Nc1ccccn1	–	inactive: 11.2%
O=C(Nc1ccc(Cl)c(Cl)c1)N1CCSC1c1ccco1 (stereo not given)	inconclusive [activator, partial curve]	–
CCOC(=O)c1ccc(N2C(=O)C=CC2=O)cc1	inconclusive [inhibitor, single point]	–
N#C/C(=C(/O)C(Cl)(Cl)Cl)c1nc2ccccc2[nH]1	–	inactive: -27.9%
O=C(c1cc2nc(-c3ccco3)cc(C(F)(F)F)n2n1)N1CCN(c2ccccc2)CC1	inconclusive [inhibitor, single point]	–
CCOC(=O)c1ccc(NC(=O)Cn2cc3c(n2)CCC(C)C3)cc1 (stereo not given)	–	inactive: -12.8% [at 46.1 µM]
N#C/C(=C\C1CC=CCC1)c1nc2ccccc2[nH]1 (stereo not given)	inconclusive [inhibitor, single point]	–
Cc1c(/C=N\NC(=O)C2COc3ccccc3O2)c2ccccc2n1C (stereo not given)	inconclusive [activator, partial curve]	–
Cc1nc(N2CCN(C(=O)c3ccco3)CC2)c2c3c(sc2n1)CC(C)CC3 (stereo not given)	inconclusive [activator, partial curve]	–
CC(NC(=O)Cc1cccs1)C(c1cccs1)N1CCN(c2ccccc2F)CC1 (stereo not given)	inconclusive [inhibitor, partial curve]	–
